# In publication PMC12040169 (PLOS Biology, 2025):
# The other results are listed elsewhere or left out.
# Test system: T1, C. trachomatis L2/434/Bu expressing GFP (CTL2-GFP)
# T1 construct: L2/434/Bu GFP intracellular growth in HeLa cells
# Parameters: species or system HeLa; C. trachomatis total inclusion area by high-content imaging, normalised to DMSO
# Conditions: total inclusion area; 28.5 h, 10 µM; inhibitor
# Outline: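 Imaging read-out: GFP inclusions and Hoechst nuclei captured by high-content imaging after fixation. Inclusion area/number = chlamydial growth; nuclei count = host cell viability. MIC calculated per earlier method.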
row,Structure (SMILES),% of control remaining
1,CCCc1n[nH]c(C2CC2)c1C(=O)OCC [CBK115714],49.3134
2,CC(C)C(=O)NC(=S)Nc1ccc2oc(-c3ccncc3)nc2c1 [CBK269702],77.6951
3,CCCN1CC(NS(=O)(=O)c2ccc3oc(=O)n(C)c3c2)CC1=O (stereo not shown) [CBK307664],84.3113
4,c1ccc(N2CCN(c3cncc(-c4cccs4)n3)CC2)nc1 [CBK065502],114.436
5,O=C(c1cccnc1)N1CCN(CCN2C(=O)C3C4C=CC(C4)C3C2=O)CC1 (stereo not shown) [CBK263639],108.312
6,CN(C)CC(=O)NC(Cc1ccsc1)c1nccs1 (stereo not shown) [CBK284801],104.411
7,Cc1nc(CN2CCCC(NCc3ccc(C(N)=O)cc3)C2)no1 (stereo not shown) [CBK304962],46.5837
8,Cn1c(NCc2ccco2)nc2c1c(=O)n(Cc1cccc(Br)c1)c(=O)n2C [CBK268863],78.7166
9,COc1ccc2cc(COC(=O)c3cnc(C)cn3)c(Cl)nc2c1 [CBK295288],96.4548
10,Cc1ccc(NS(=O)(=O)c2cccs2)cc1 [CBK045362],112.127
11,Cc1cc(-c2nnc(SCC(=O)N3CCOCC3)o2)no1 [CBK268984],55.0901
12,CC(=O)Nc1nnc(-c2ccc(Cl)cc2)s1 [CBK287331],107.87
13,CCOCCn1c(N2CCCC(C)C2)nc2c1c(=O)[nH]c(=O)n2C (stereo not shown) [CBK304304],57.9747
14,COc1ccc(-c2cnc3[nH]c(=O)n(CCN4CCOCC4)c3n2)cc1 [CBK064782],100.967
15,CC1CCc2n[nH]c(C(=O)N(C)CCc3ccncc3)c2C1 (stereo not shown) [CBK283195],98.1758
16,CCOc1ccc(OC(=O)c2cccc(C)c2)cc1 [CBK083575],90.2239
17,CC(=O)Nc1ccc(-c2ccc(COC3CCN(C(=O)Cc4ccc(C#N)cc4)CC3)cc2)cc1 [CBK149225],75.3679
18,CCN(CC)CCCNC(=O)N1CCN(c2ccc(F)cc2)CC1 [CBK156419],111.731
19,CC1CCc2c(sc(NC(=O)c3ccno3)c2C(N)=O)C1 (stereo not shown) [CBK287752],63.4354
20,CC(C)(CN)c1ccccc1 [CBK012106C],66.5669
21,COc1ccccc1/C=N/NC(=O)COc1c(Br)cc(Br)cc1Br [CBK261966],96.7716

row,Structure (SMILES),% of control remaining
1,Cc1ccc(N(CC(O)CN2C(=O)NC(C)(C)C2=O)S(=O)(=O)c2ccccc2)cc1 (stereo not shown) [CBK263580],78.9776
2,CNC(=O)CN1CC[C@H]2NC(=O)c3ccccc3OCC/C=C/C[C@H]2C1 [CBK292049],113.251
3,Cc1cc2ncc3c(n2n1)CC1CCC3N1C(=O)c1ccco1 (stereo not shown) [CBK284379],100.584
4,COc1cccc(/C=N/NC(=O)CCN2CCN(C)CC2)c1O [CBK261499],94.7994
5,CCOC(=O)c1ccc(N2CCN(C(C)=O)CC2)c(NC(=O)c2cccc(F)c2)c1 [CBK270263],93.9853
6,COc1cc(CNC(=O)N(CCC#N)C2CCCCC2)cc(OC)c1OC [CBK156359],95.1992
7,O=C(Nc1ccc(Cl)cc1Cl)NC(Cc1ccc(O)cc1)C(=O)O (stereo not shown) [CBK267386],107.207
8,CC(C)N/C(=N/S(=O)(=O)c1ccccc1)c1ccccc1 [CBK262346],109.011
9,COc1ccc(/C(C#N)=C/c2ccc(-c3ccc(C(=O)O)cc3)o2)cc1OC [CBK268953],99.9459
10,Cc1n[nH]c(C)c1CCC(=O)N/N=C/c1ccc(O)cc1 [CBK262927],120.414
11,O=C(NC(c1ccccc1)c1cccnc1)C1CCN(C(=O)NCCc2cccs2)CC1 (stereo not shown) [CBK060313],83.442
12,COC(=O)c1cccc2c1CCCN2Cc1nnc(C2CCC2)o1 [CBK304072],61.9045
13,Cc1ccc(N2CC(C(=O)Nc3ccc(S(=O)(=O)NCC4CCCO4)cc3)CC2=O)cc1 (stereo not shown) [CBK267532],90.1874
14,COc1ccccc1CCC(=O)N1CCCc2c(cnn2C)C1 [CBK284847],114.668
15,O=C(CSc1ncn(-c2ccccc2)n1)Nc1ccc(F)c(Cl)c1 [CBK267313],105.719
16,O=C1c2ccccc2CN1c1ccc(OC(F)(F)F)cc1 [CBK113237],48.138
17,O=C(CC(CN1CCN(c2ccccn2)CC1)C(=O)O)NCc1ccccc1 (stereo not shown) [CBK286649],84.4232
18,Cn1cccc1CN1CCCC(n2c(=O)oc3ccccc32)C1 (stereo not shown) [CBK285111],120.999
19,O=C(/C=C/c1ccsc1)Nc1ccc(F)cc1 [CBK057139],82.6076
20,CNC(=O)c1ccc(-c2ccc(C(C)=O)s2)nc1NCC1CC1 [CBK106307],61.462
21,COc1ccc([C@@]23CC[C@@H](NC(=O)Nc4ccc(C(C)(C)C)cc4)C[C@@H]2N(C)CC3)cc1OC [CBK036469T],68.3281

row,Structure (SMILES),% of control remaining
1,NCCOc1ncccc1OCc1ccccc1 [CBK036305],42.0894
2,CCOC(=O)c1c(NC(=O)c2cc3ccccc3o2)sc2c1CCCC2 [CBK262552],115.46
3,O=C(O)CC(NCc1ccccc1)C(=O)Nc1ccc(Cl)cc1 (stereo not shown) [CBK267141],101.553
4,O=C(CSCc1ccc(Cl)cc1Cl)Nc1nccs1 [CBK131921],97.5487
5,Cc1cc(NC(=O)C(=O)NCCCN2CCOCC2)ccc1Br [CBK268046],115.195
6,Cc1cc(O)c(-c2n[nH]c3c2C(c2ccccc2F)N(Cc2cccnc2)C3=O)cc1C (stereo not shown) [CBK268831],99.5023
7,Clc1cccc(-c2cncc(N3CCN(c4ccncc4)CC3)n2)c1 [CBK066099],94.5889
8,O=C(O)c1ccc(-c2n[nH]c(=O)c3ccccc23)cc1 [CBK287148],107.84
9,COC(=O)c1ccc(S(=O)(=O)N2CCC(C)CC2)cc1 [CBK070414],78.2858
10,COc1ccccc1CCNC(=O)c1ncoc1-c1cccs1 [CBK282394],74.0189
11,COC(=O)Nc1ccc(S(=O)(=O)N2CCCC(C(=O)O)C2)cc1 (stereo not shown) [CBK265364],105.982
12,Cc1cc(SCc2ccc(Cl)cc2)nc(=O)[nH]1 [CBK287719],97.2236
13,O=C(CN1CCOCC1)NC(=O)Nc1ccccc1 [CBK269213],86.2414
14,COc1ccccc1CN1CC[C@H]2NC(=O)CNC(=O)C3(C/C=C/C[C@H]2C1)CCN(C(C)=O)CC3 [CBK292107],95.8126
15,Cc1nn(Cc2cccc3ccccc23)c(C)c1NC(=O)c1ccncc1 [CBK269990],77.8184
16,COc1ccc(N2CCN(c3cc(C)nc4cc(-c5nccn5C)nn34)CC2)cc1 [CBK286187],146.644
17,O=C1NC2(CCCCCC2)C(=O)N1Cc1coc(-c2cccs2)n1 [CBK305858],78.3845
18,COC1CCCC(C(=O)NC(Cc2ccsc2)c2cccnc2)C1 (stereo not shown) [CBK284654],101.89
19,COc1cc(C(=O)Nc2nc3c(s2)CC(C)CC3)cc(OC)c1OC (stereo not shown) [CBK287299],49.1573
20,CCCNC(=O)N1CCCC(Cc2ccc(F)cc2F)(C(=O)OCC)C1 (stereo not shown) [CBK307031],66.5913
21,Cc1ccc(S(=O)(=O)N2CCCCC2CO)cc1 (stereo not shown) [CBK051142],61.4623

row,Structure (SMILES),% of control remaining
1,CCOc1ccc(CNc2ccc(S(N)(=O)=O)cc2)cc1 [CBK267962],100.955
2,CN(C)C(=O)c1sc2ccccc2c1Cl [CBK067817],85.997
3,Cc1nc2c(C(=O)NCCCN3CCCC3=O)cnn2c(C)c1Cc1cccc(F)c1 [CBK162104],56.3867
4,N#CCCn1cc(C(=O)N2CCOCC2)c(-c2cccc(Cl)c2)n1 [CBK306208],44.6944
5,CC(C)(C)c1ccc(C(=O)Nc2nsc(-c3ccc(Cl)cc3)n2)cc1 [CBK113176],100.521
6,O=c1[nH]c2ncc(-c3cccc4cccnc34)nc2n1Cc1cccnc1 [CBK064305],100.478
7,CCn1nccc1C(=O)NC1=C(C#N)CCC1 [CBK265836],105.91
8,Cc1onc(-c2ccccc2Cl)c1C(=O)Nc1ccc(S(=O)(=O)NCC2CCCO2)cc1 (stereo not shown) [CBK267536],100.175
9,COc1cc2[nH]c(=S)n(CCc3c[nH]cn3)c(=O)c2cc1OC [CBK268333],96.712
10,Cc1cc(N2CCOCC2)ccc1NC(=O)CCOc1cccc(Cl)c1 [CBK305724],112.044
11,COc1cccc(CNC(C)(C)CO)c1OCc1ccc(Cl)cc1 [CBK266552C],117.004
12,O=C(c1cc(-c2cccs2)[nH]n1)N1CCCCCC1 [CBK288108],110.885
13,CC(Nc1cc(N2CCN(S(=O)(=O)N(C)C)CC2)ccc1[N+](=O)[O-])C12CC3CC(CC(C3)C1)C2 (stereo not shown) [CBK265479],81.1209
14,Cc1nnc2sc(-c3ccc(NC(=S)NC(=O)c4ccc(-c5ccccc5[N+](=O)[O-])o4)cc3)nn12 [CBK266803],112.219
15,Cc1cc(O)nc(SCCOCCSc2ccc(Cl)cc2)n1 [CBK267372],122.169
16,Cc1ccc(-c2ccnc3[nH]c(=O)[nH]c(=O)c23)cc1 [CBK287978],97.1245
17,Cc1cc(C)c(C)c(C(=O)COC(=O)c2cc(O)nc3ccccc23)c1C [CBK264066],95.2003
18,CC(=O)Cc1ccccc1OCC(=O)O [CBK261031],104.589
19,Cc1cccc(C2(c3cccc(C)c3)CC2C(=O)NCc2cccnc2)c1 (stereo not shown) [CBK262382],99.4237
